From PubChem BioAssay AID686978 (National Center for Advancing Translational Sciences (NCATS), 2013)
Several values for one entry are separate records, joined by “and”; a condition that tells them apart may be missing. Equal values may be shown once. In all, about 420,000 compounds went through this assay and about 64,000 (15%) were called active. This list was built around the results that the source calls inconclusive (neither active nor inactive); the mix of calls is not that of the screen. Calls come from the whole dose curve; as a rule, active = well fitted inhibition curve with a large enough effect; inconclusive = small, poorly fitted or top-dose-only effect; inactive = flat fitted curve, though single readings scatter. Potencies of inconclusive entries are doubtful fits and often do not repeat.

Assay: qHTS for Inhibitors of human tyrosyl-DNA phosphodiesterase 1 (TDP1): qHTS in cells in absence of CPT; note: nearly all actives have a fitted effect of over 55% in size
Details: DT40 Tdp1-/- hTDP1 cells, no CPT, ATP luminescence, 48 h; activity change, negative = growth inhibition: at 46.2 µM (top of the series) unless noted
In short: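 Readout: luminescence from CellTiter-Glo after 30 min in the dark at RT. Cells: DT40 Tdp1-/- with stable hTDP1, 400/well. Exposure: compounds alone, ≥48 hr, 37 °C.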
% is set by controls: 0 for no effect and ±100 for the full control effect; potency is the fitted concentration of half-maximal effect; tags give direction and shape of the fitted curve.

Q: Which Potency does the source give for Cc1c(/C=C/C(=O)c2ccccc2O)cnn1C here?
A: The Potency was inconclusive: 11.6 µM [inhibitor, partial curve, poor fit].

Q: Which Potency does the source give for O=C(N1CCOCC1)N1CCN(c2ccccc2F)CC1 here?
A: The Potency was inconclusive: 16.4 µM [inhibitor, partial curve, poor fit].

Q: With CC(/C=N/n1c(C2CCCCC2)n[nH]c1=S)=C\c1ccccc1 as the compound, how does the Potency read?
A: The Potency was inconclusive: 29.1 µM [inhibitor, single point].

Q: Which Potency does the source give for CCC(=O)O[C@]1(C(=O)CCl)[C@@H](C)C[C@H]2[C@@H]3CCC4=CC(=O)C=C[C@]4(C)[C@@]3(F)[C@@H](O)C[C@@]21C here?
A: The Potency was “inactive and inconclusive: 29.1 µM [inhibitor, single point]”.

Q: With COc1ccc(OC)c(/C=N\Nc2nccs2)c1 as the compound, how does the Potency read?
A: Its Potency is inconclusive: 20.6 µM [inhibitor, single point].

Q: With CC(=O)Nc1ccc(S(=O)(=O)Nc2nc(CN3CCOCC3)nc3sc4c(c23)CCCC4)cc1 as the compound, how does the Potency read?
A: Its Potency is inconclusive: 29.1 µM [inhibitor, single point].

Q: With Cc1oc2ccc(OS(C)(=O)=O)cc2c1C(=O)OC(C)C as the compound, how does the Potency read?
A: Its Potency is inconclusive: 20.6 µM [inhibitor, single point].

Q: With Cc1nn(C(C)(C)C)c(OC(=O)CC(C)C)c1S(=O)(=O)c1ccccc1 as the compound, how does the “activity change, negative = growth inhibition” value read?
A: Its value is inactive: -26.5%.

Q: Which Potency does the source give for CCCNC(=O)c1ccc(N2CCC3(CC2)CC(c2ccccc2)=NO3)c(NC(=O)c2cccc(OC)c2)c1 here?
A: Its Potency is active: 13 µM.

Q: Which Potency does the source give for COC(=O)c1cnn(-c2ccc(C)c(C)c2)c1-n1cccc1 here?
A: Its Potency is inconclusive: 25.9 µM [inhibitor, partial curve, poor fit].

Q: With O=C(CN(c1ccccc1)S(=O)(=O)c1ccccc1)N1CCN(Cc2ccc3c(c2)OCO3)CC1 as the compound, how does the Potency read?
A: The Potency was inconclusive: 11.6 µM [inhibitor, partial curve].

Q: For COc1cccc(/C=N/NC(=O)Cn2ccnc2C)c1, which “activity change, negative = growth inhibition” value is on record?
A: Its value is inactive: -3.16%.

Q: With CC(C)C[C@H](NC(=O)c1[nH]cnc1C(=O)Nc1ccc(Cl)cc1)C(=O)OC(C)(C)C as the compound, how does the Potency read?
A: The Potency was inconclusive: 29.1 µM [inhibitor, single point].

Q: With CCCCn1c(=O)[nH]c(=O)c2c1nc(-c1ccc(-c3ccccc3)cc1)n2C as the compound, how does the Potency read?
A: The Potency was inconclusive: 14.6 µM [inhibitor, partial curve].

Q: For COc1cccc(NC(=O)CN(C)C(=O)CN2C(=O)NC(C)(c3ccc4ccccc4c3)C2=O)c1 (stereo unspecified), which Potency is on record?
A: Its Potency is inconclusive: 20.6 µM [inhibitor, single point].

Q: For CN(CC(=O)Nc1ccccc1C(F)(F)F)C(=O)CSCc1ccccc1, which Potency is on record?
A: The Potency was inconclusive: 16.4 µM [inhibitor, partial curve, poor fit].
